# Values joined by “and” are separate entries in the source; they are usually repeats but may differ in a detail not shown here. Equal values may be shown once. Hit rate of the full screen: of about 420,000 compounds, about 64,000 (15%) were called active. The shares of active, inactive and inconclusive entries below differ from those in the screen. Calls come from the whole dose curve; as a rule, active = well fitted inhibition curve with a large enough effect; inconclusive = small, poorly fitted or top-dose-only effect; inactive = flat fitted curve, though single readings scatter. Potencies of inconclusive entries are doubtful fits and often do not repeat.
# Test: qHTS for Inhibitors of human tyrosyl-DNA phosphodiesterase 1 (TDP1): qHTS in cells in absence of CPT; note: nearly all actives have a fitted effect of over 55% in size
# Conditions: DT40 Tdp1-/- hTDP1 cells, no CPT, ATP luminescence, 48 h; activity change, negative = growth inhibition: at 46.2 µM (top of the series)
# Procedure, shortened: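 Chicken DT40 Tdp1-/- cells complemented with human TDP1, screened without camptothecin (DMSO vehicle only), 400 cells/well. Compounds pin-transferred, cells incubated at 37 °C for at least 48 hr. Growth read as ATP-dependent luminescence (CellTiter-Glo, 30 min at RT).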
# % is set by controls: 0 for no effect and ±100 for the full control effect; potency is the fitted concentration of half-maximal effect; tags give direction and shape of the fitted curve.
SMILES,Potency,"activity change, negative = growth inhibition"
COc1ccc(OC)c(CCNC(=O)CCCC(=O)n2ncc3cc(C)ccc32)c1,"inconclusive: 29.1 µM [inhibitor, single point]",–
COc1cc(C)c(NC(=O)COc2cccc3c2OC(C)(C)C3)cc1OC,active: 11.6 µM,–
O=C(CC12CC3CC(CC(C3)C1)C2)NCC(=O)OCc1cc(=O)oc2ccc3ccccc3c12,active: 18.4 µM,–
COc1ccc(OCCCC(=O)N(C)CC(=O)Nc2c(C)cccc2C)cc1,inactive,–
O=c1[nH]c(SCc2ccc(F)cc2)nc2c1CCCC2,"inconclusive: 20.6 µM [inhibitor, single point]",–
CCc1c(O)nc(SCC(=O)NC(C)(C)C)n(-c2ccccc2)c1=O,inactive,–
Cc1cc(C)nc(SC2CCCCC2NS(=O)(=O)c2ccc(Cl)cc2)n1 (centres undefined),"inconclusive: 29.1 µM [inhibitor, single point]",–
O=C(Cn1cc(SCc2cccc(Cl)c2)c2ccccc21)N1CCOCC1,"inconclusive: 13 µM [inhibitor, partial curve] and inconclusive: 25.9 µM [inhibitor, single point]",–
CC(=O)c1ccc(N2CCN(C(=O)CN(C)S(=O)(=O)c3cnc[nH]3)CC2)cc1,inactive,–
NC(=O)C1CCCN(C(=O)c2cccc(S(=O)(=O)N(Cc3ccccc3)c3ccccc3)c2)C1 (centres undefined),"inconclusive: 29.1 µM [inhibitor, single point]",–
CCN(c1ccccc1)S(=O)(=O)c1ccc(Cl)c(NC(=O)CSc2n[nH]c(N)n2)c1,"inconclusive: 7.31 µM [inhibitor, partial curve, poor fit]",–
COc1ccc(CNC(=O)C2CCCN(S(=O)(=O)c3ccc4c(c3)CCCN4C(C)=O)C2)cc1 (centres undefined),active: 10.3 µM,–
O=C(CCCOc1ccc(Cl)cc1Cl)N/N=C/c1ccc(Cl)cc1,active: 23.1 µM,–
CCc1nnc2c(NCc3ccc(F)cc3)nc3ccccc3n12,inactive,–
Cc1ccc(S(=O)(=O)N(C)c2ccc(OCC(=O)N3CCCCC3)cc2)cc1,"inconclusive: 29.1 µM [inhibitor, single point]",–
O=C(CCc1ccncc1)NC1CCCc2c1cnn2-c1cc(F)cc(F)c1 (centres undefined),"inconclusive: 23.1 µM [inhibitor, partial curve]",–
COc1ccc2c(c1)C(=O)N(c1ccccc1C)C(=O)C2(C)C,inactive,–
CN(CCC1CCCCO1)C(=O)CCc1nnc(CCCCc2ccccc2)o1 (centres undefined),"inconclusive: 16.4 µM [inhibitor, single point]",–
COc1ccc(OC)c(NCCN2C(=O)c3ccccc3C2=O)c1,inactive,–
Cc1ccc(-c2cc(C(=O)NCCc3ccccn3)c3ccccc3n2)c(C)c1,"inconclusive: 29.1 µM [inhibitor, single point]",–
Cc1cccn2c(=O)c(C(=O)NC3CCCCC3C)c(O)nc12 (centres undefined),active: 14.6 µM,–
CCOc1ccc2nc(N3CCCC(C(=O)Nc4ccc(Br)c(C)c4)C3)sc2c1 (centres undefined),"inconclusive: 18.4 µM [inhibitor, single point]",–
C=CCNC(=O)/C(C#N)=C/c1c(N2CCCCCC2)nc2ccccn2c1=O,"inconclusive: 16.4 µM [inhibitor, partial curve]",–

SMILES,Potency,"activity change, negative = growth inhibition"
C[C@]12c3[nH]c4ccc(Cl)cc4c3CCN1C(=O)[C@@H](CC(=O)NCCc1ccccn1)C[C@@H]2C(=O)N1CCOCC1,inactive,–
CCOC(=O)c1ccc(-c2ccc(/C=N/NC(=O)Cc3nnc(N)s3)o2)cc1,"inconclusive: 20.6 µM [inhibitor, single point]",–
COc1ccccc1N1CCN(S(=O)(=O)c2ccc(F)c(C(=O)Nc3ccc(C)c(F)c3)c2)CC1,"inconclusive: 29.1 µM [inhibitor, single point]",–
O=C(NNC(=S)NCc1ccccc1)c1ccc(Br)cc1,"inconclusive: 20.6 µM [inhibitor, single point]",–
COc1ccccc1C(C)NC(=O)c1cc(S(=O)(=O)N2CCCCC2)ccc1C (centres undefined),"inconclusive: 14.6 µM [inhibitor, partial curve]",–
C/C(=N\Nc1cc(Cl)nc(C)n1)c1ccc(C)cc1,"inconclusive: 23.1 µM [inhibitor, single point]",–
COc1cccc(C(=O)N2c3ccccc3Sc3ccccc32)c1,active: 16.4 µM,–
CCc1ccc(NS(=O)(=O)c2c(C(=O)N3CCOCC3)c(C)n(C)c2C)cc1,inactive,–
C=C(C)c1cccc(C(C)(C)NC(=O)Nc2ccc(C(N)=O)cc2)c1,"inconclusive: 23.1 µM [inhibitor, partial curve]",–
O=C(Nc1ccccc1F)c1nc[nH]c1C(=O)NCc1ccccc1,"inconclusive: 29.1 µM [inhibitor, single point]",–
Cc1cccc(OCC(=O)NNC(=O)c2ccc([N+](=O)[O-])cc2)c1,inactive,–
Cc1nc2cc(N3CCCCC3)c(NC(=O)c3cccnc3)cc2c(=O)n1Cc1ccccc1,"inconclusive: 20.6 µM [inhibitor, single point]",–
CC(C)(C)NS(=O)(=O)c1ccc2[nH]c3c(c2c1)CCCCC3,"inconclusive: 20.6 µM [inhibitor, single point]",–
O=C(NCCCN1CCN(c2ccc(F)cc2)CC1)C1CCCN(c2ncnc3c2nc2n3CCCCC2)C1 (centres undefined),active: 8.2 µM,–
COCCNC(=O)CSc1nnc(-c2ccccc2F)n1Cc1ccccc1,inactive,–
O=C(CN1C(=O)NC2(CCCC2)C1=O)OCCOc1ccc(Cl)cc1Cl,"inconclusive: 25.9 µM [inhibitor, single point]",–
Cc1nc2c(ccc3nc(NC(=O)Cc4ccccc4)sc32)s1,"inconclusive: 20.6 µM [inhibitor, partial curve, poor fit]",–
CCOC(=O)c1cnc2ccc(C(=O)OC)cc2c1Nc1ccc2c(c1)OCCO2,"inconclusive: 14.6 µM [inhibitor, partial curve]",–
COc1ccc(NC(=O)c2cc(-c3cc(C)cc(F)c3)n[nH]2)cc1OC,"inconclusive: 16.4 µM [inhibitor, single point]",–
CCOC(=O)c1c(C)[nH]c(NC(=O)N2CCOCC2)c1C,"inconclusive: 14.6 µM [inhibitor, partial curve]",–
CCOC(=O)CCc1c(C)nc2c(c(C)nn2C(C)(C)C)c1C,"inconclusive: 20.6 µM [inhibitor, single point]",–
Cc1cccn2cc(-c3ccc(S(=O)(=O)N4CCCCC4)cc3)nc12,"inconclusive: 29.1 µM [inhibitor, single point]",–
COc1ccc(CCNC(=O)c2cc(Sc3cccc(Cl)c3)nc3ccccc23)cc1OC,active: 7.31 µM,–

SMILES,Potency,"activity change, negative = growth inhibition"
CCCOC(=O)/C(=C\C=C\c1ccccc1)NC(=O)c1ccccc1,"inconclusive: 9.2 µM [inhibitor, partial curve]",–
COc1ccc2c(c1)NC(c1ccc(OCC(C)C)cc1)=NC(c1ccncc1)=N2,"inconclusive: 29.1 µM [inhibitor, single point]",–
CCOC(=O)c1c(NC(=O)CSc2nnnn2-c2ccccc2)sc2c1CC(C)(C)NC2(C)C,"inconclusive: 29.1 µM [inhibitor, single point]",–
Cc1ccc2nc(NC(=O)c3ccccn3)sc2c1,active: 6.51 µM,–
COc1ccc(CCNc2oc(-c3ccc(OC)c(OC)c3)nc2C#N)cc1,"inconclusive: 20 µM [inhibitor, single point]",–
CCN(CC)S(=O)(=O)c1ccc(C(=O)Oc2cc(C)[nH]c(=O)c2[N+](=O)[O-])cc1,inactive,–
Cc1cc(C(=O)N/N=C/c2cc(N=Nc3ccccc3)ccc2O)n[nH]1,active: 6.51 µM,–
CCOc1ccc(-c2n[nH]c3c2C(c2ccccc2OC)N(c2ccc(Br)cc2)C3=O)cc1 (centres undefined),active: 14.6 µM,–
O=C(Nc1cc(Cl)cc(Cl)c1)c1ccc(F)c(S(=O)(=O)N2CCCCCC2)c1,active: 10.3 µM,–
Cc1ccc(C(C)C)c(OCCn2cc(C(=O)c3ccco3)c3ccccc32)c1,active: 14.6 µM,–
O=[N+]([O-])c1ccc(NCCNS(=O)(=O)c2ccccc2)c(C(F)(F)F)c1,active: 18.4 µM,–
Cc1nc2c(-c3ccc(F)cc3)c(C)nn2c(C)c1CCC(=O)Nc1ccccc1,"inconclusive: 20.6 µM [inhibitor, single point]",–
C=CCSc1nnc(CNC(=O)c2ccccc2C)n1C(C)C,inactive,–
CN1C(C(=O)Nc2ccc(OC(F)(F)F)cc2)=CC(c2ccc3c(c2)OCO3)=NS1(=O)=O,"inconclusive: 18.4 µM [inhibitor, single point]",–
COc1ccc(S(=O)(=O)Nc2ncccn2)cc1,inactive,–
O=C(C1CCC1)N1CCc2cc(S(=O)(=O)NCc3cccnc3)ccc21,"inconclusive: 14.6 µM [inhibitor, partial curve, poor fit]",–
COc1cccc(NC(=O)CCNC(=O)N2CC(=O)Nc3ccccc32)c1,inactive,–
Cc1ccnc(NC(=O)c2cccc(S(=O)(=O)Nc3ccc(C)cc3C)c2)c1,"inconclusive: 20.6 µM [inhibitor, single point]",–
O=C(NCc1ccccc1)c1ccc(CN2CCC(Cc3ccccc3)CC2)cc1,"inconclusive: 29.1 µM [inhibitor, single point]",–
S=c1[nH]nc(-c2cc3ccccc3o2)n1Cc1ccccc1,"inconclusive: 23.1 µM [inhibitor, partial curve, poor fit]",–
CCN1C(=O)N[C@H](c2ccc(Br)cc2)C(C(C)=O)=C1C,active: 16.4 µM,–
CCOc1ccc2nc(SCC(=O)NC3CC3)sc2c1,inactive,–
O=C(COc1ccc(Cl)cc1)Nc1c(-c2cccs2)nc2ccccn12,–,inconclusive: -36% [inhibitor]
